{
  "sequences": {"note": "Protein sequences, listed by entry. Tags and fused reporters are not part of them. Lines headed by an entry give the natural chain unless they say otherwise; changes in a name come on top.", "UniProt Q16651": "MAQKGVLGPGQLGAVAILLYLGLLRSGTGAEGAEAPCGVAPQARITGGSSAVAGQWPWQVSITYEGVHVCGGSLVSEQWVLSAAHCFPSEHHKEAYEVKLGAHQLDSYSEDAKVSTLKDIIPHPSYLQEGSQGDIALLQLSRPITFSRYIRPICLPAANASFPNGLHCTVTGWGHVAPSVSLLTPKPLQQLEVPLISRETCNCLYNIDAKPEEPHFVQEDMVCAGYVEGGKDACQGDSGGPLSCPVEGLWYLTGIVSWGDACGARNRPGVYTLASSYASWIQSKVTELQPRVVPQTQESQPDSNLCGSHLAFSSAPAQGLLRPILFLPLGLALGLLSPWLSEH"},
  "source": "paper PMC5268426",
  "molecules": {"B1": {"name": "hepatocyte growth factor activator inhibitor (HAI)-1 (protein, UniProt O43278 36-529)", "chain": "GPPPAPPGLPAGADCLNSFTAGVPGFVLDTNASVSNGATFLESPTVRRGWDCVRACCTTQNCNLALVELQPDRGEDAIAACFLINCLYEQNFVCKFAPREGFINYLTREVYRSYRQLRTQGFGGSGIPKAWAGIDLKVQPQEPLVLKDVENTDWRLLRGDTDVRVERKDPNQVELWGLKEGTYLFQLTVTSSDHPEDTANVTVTVLSTKQTEDYCLASNKVGRCRGSFPRWYYDPTEQICKSFVYGGCLGNKNNYLREEECILACRGVQGGPLRGSSGAQATFPQGPSMERRHPVCSGTCQPTQFRCSNGCCIDSFLECDDTPNCPDASDEAACEKYTSGFDELQRIHFPSDKGHCVDLPDTGLCKESIPRWYYNPFSEHCARFTYGGCYGNKNNFEEEQQCLESCRGISKKDVFGLRREIPIPSTGSVEMAVAVFLVICIVVVVAILGYCFFKNQRKDFHGHHHHPPPTPASSTVSTTEDTEHLVYNHTTRPL"}, "B2": {"name": "hepatocyte growth factor activator inhibitor (HAI)-2 (protein, UniProt O43291 28-252)", "chain": "ADRERSIHDFCLVSKVVGRCRASMPRWWYNVTDGSCQLFVYGGCDGNSNNYLTKEECLKKCATVTENATGDLATSRNAADSSVPSAPRRQDSEDHSSDMFNYEEYCTANAVTGPCRASFPRWYFDVERNSCNNFIYGGCRGNKNSYRSEEACMLRCFRQQENPPLPLGSKVVVLAGLFVMVLILFLGASMVYLIRVARRNQERALRTVWSSGDDKEQLVKNTYVL", "modifications": "extensive N-glycan branching (species recognised by mAb DC16)"}, "B3": {"name": "hepatocyte growth factor activator inhibitor (HAI)-2, O43291 28-252 (protein)", "chain": "B2 chain", "modifications": "here or on the partner: extensive N-glycan branching (species recognised by mAb DC16)"}},
  "key": {"[1]": {"biological_target": "T1, hepatocyte growth factor activator inhibitor (HAI)-2 (human (endogenous in Caco-2, human intestine tissue, LNCaP, HaCaT, 184 A1N4)) (UniProt O43291)", "T1 sequence (chain, extensive N-glycan branching (species recognised by mAb DC16))": "B2 chain", "experiment": "co-IP; immunodepletion-immunoblot: Caco-2 lysate (200 ul) with 15 ul mAb-Sepharose beads, 2 hours in a cold room, supernatant blotted; matriptase depletion on lysate of cells activated at pH 6.0"}, "[2]": {"biological_target": "T1, hepatocyte growth factor activator inhibitor (HAI)-2 (human (endogenous in Caco-2, human intestine tissue, LNCaP, HaCaT, 184 A1N4))", "experiment": "co-IP; sequential immunoaffinity columns (M19-Sepharose anti-HAI-1, DC16-Sepharose anti-HAI-2, YL11-Sepharose anti-prostasin) on Caco-2 lysate; washed with PBS with 1% Triton X100, eluted with 0.1 M glycine buffer; eluates blotted for prostasin with mAb YL11"}, "[3]": {"biological_target": "activated matriptase (human (endogenous in Caco-2, human intestine tissue)) (UniProt Q9Y5Y6)", "experiment": "immunoblot of SDS-stable protease-inhibitor complexes (non-reducing, non-boiled SDS-PAGE); lysate of frozen human intestine tissue in RIPA buffer; blots with matriptase, prostasin, HAI-1 and HAI-2 mAbs"}, "[4]": {"biological_target": "activated matriptase (human (endogenous in Caco-2, human intestine tissue)) (UniProt Q9Y5Y6)", "experiment": "immunoblot of SDS-stable protease-inhibitor complexes (non-reducing, non-boiled SDS-PAGE); Caco-2 lysates; cells in PBS or in phosphate buffer pH 6.0 for 20 min to induce matriptase zymogen activation; samples without reducing agent, room temperature 5 min, 7.5% SDS-PAGE"}, "[5]": {"biological_target": "activated prostasin (human (endogenous in Caco-2, human intestine tissue, LNCaP, HaCaT, 184 A1N4)) (UniProt Q16651)", "experiment": "co-IP; immunodepletion-immunoblot: human intestine tissue lysate with prostasin mAb YL-11-Sepharose or HAI-2 mAb DC16-Sepharose, depleted lysate blotted for HAI-2 species"}, "[6]": {"biological_target": "activated prostasin (human (endogenous in Caco-2, human intestine tissue, LNCaP, HaCaT, 184 A1N4)) (UniProt Q16651)", "experiment": "co-IP; immunodepletion-immunoblot: Caco-2 lysate (200 ul) with 15 ul mAb-Sepharose beads, 2 hours in a cold room, supernatant blotted; matriptase depletion on lysate of cells activated at pH 6.0"}, "[7]": {"biological_target": "activated prostasin (human (endogenous in Caco-2, human intestine tissue, LNCaP, HaCaT, 184 A1N4)) (UniProt Q16651)", "experiment": "immunoblot of SDS-stable protease-inhibitor complexes (non-reducing, non-boiled SDS-PAGE); lysate of frozen human intestine tissue in RIPA buffer; blots with matriptase, prostasin, HAI-1 and HAI-2 mAbs"}, "[8]": {"biological_target": "T2, activated matriptase (human (endogenous in Caco-2, human intestine tissue)), Q9Y5Y6", "T2 chain": "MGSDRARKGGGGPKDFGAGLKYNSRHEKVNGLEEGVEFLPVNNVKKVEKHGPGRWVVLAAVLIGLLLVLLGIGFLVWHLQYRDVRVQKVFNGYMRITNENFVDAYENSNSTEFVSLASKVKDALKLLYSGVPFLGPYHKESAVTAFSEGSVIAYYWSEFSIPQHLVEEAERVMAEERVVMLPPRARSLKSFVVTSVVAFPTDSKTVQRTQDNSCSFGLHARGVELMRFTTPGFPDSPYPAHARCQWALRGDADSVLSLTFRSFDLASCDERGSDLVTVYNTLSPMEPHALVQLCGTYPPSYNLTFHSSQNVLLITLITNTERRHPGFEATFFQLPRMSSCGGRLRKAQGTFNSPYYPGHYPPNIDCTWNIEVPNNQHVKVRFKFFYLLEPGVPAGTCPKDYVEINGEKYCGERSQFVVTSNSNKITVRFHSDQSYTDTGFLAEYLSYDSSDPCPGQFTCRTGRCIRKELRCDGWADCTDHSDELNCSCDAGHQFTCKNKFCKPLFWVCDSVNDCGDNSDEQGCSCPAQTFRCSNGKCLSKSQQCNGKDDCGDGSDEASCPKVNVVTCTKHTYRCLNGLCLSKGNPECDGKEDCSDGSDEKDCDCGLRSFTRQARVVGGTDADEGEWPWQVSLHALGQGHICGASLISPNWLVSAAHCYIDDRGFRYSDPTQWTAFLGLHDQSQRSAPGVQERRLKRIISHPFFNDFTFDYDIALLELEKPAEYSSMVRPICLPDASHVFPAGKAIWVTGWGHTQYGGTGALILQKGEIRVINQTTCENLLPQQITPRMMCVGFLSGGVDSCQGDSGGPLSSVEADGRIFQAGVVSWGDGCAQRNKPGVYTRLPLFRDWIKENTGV", "experiment": "co-IP; immunodepletion-immunoblot: Caco-2 lysate (200 ul) with 15 ul mAb-Sepharose beads, 2 hours in a cold room, supernatant blotted; matriptase depletion on lysate of cells activated at pH 6.0", "conditions": "remark: other sources report otherwise"}, "[9]": {"biological_target": "T2, activated matriptase (human (endogenous …))", "experiment": "immunoblot of SDS-stable protease-inhibitor complexes (non-reducing, non-boiled SDS-PAGE); Caco-2 lysates; cells in PBS or in phosphate buffer pH 6.0 for 20 min to induce matriptase zymogen activation; samples without reducing agent, room temperature 5 min, 7.5% SDS-PAGE", "conditions": "remark: other sources report otherwise"}},
  "note": "No constants are given. Whether binding was seen depends on the method and setting. For part of these data: In cells and extracts the contact can be indirect. Some results given as binding are weak or reduced against the parent protein; the word gives no strength.",
  "data": [
    {"molecule": "activated prostasin (from UniProt Q16651 33-44; Q16651 45-322) (enzyme)", "values": [
      {"measurement": "binding", "setting": "[1]", "result": "binds"},
      {"measurement": "binding", "setting": "[2]", "result": "binds"}
    ]},
    {"molecule": "B1", "values": [
      {"measurement": "binding", "setting": "[3]", "result": "binds"},
      {"measurement": "binding", "setting": "[4]", "result": "binds"}
    ]},
    {"molecule": "B2", "values": [
      {"measurement": "binding", "setting": "[5]", "result": "binds"},
      {"measurement": "binding", "setting": "[6]", "result": "binds"},
      {"measurement": "binding", "setting": "[7]", "result": "binds"}
    ]},
    {"molecule": "B3", "values": [
      {"measurement": "binding", "setting": "[8]", "result": "no binding"},
      {"measurement": "binding", "setting": "[9]", "result": "no binding"}
    ]}
  ]
}
